Test results taken from ChEMBL document CHEMBL5606458, “ASAP - ZIKV NS2B-NS3 protease fluorescence single point” (2024).
The whole screen tested about 2,700 compounds, of which about 160 (5.9%) showed an effect of 50% or more. Some of the results follow.

Target: Nonstructural protein 3 (Zika virus) (UniProt A0A024AXB9)
[1] = PRVABC59, Concentration 15.0 uM, Number of replicates 1.0
[2] = PRVABC59, Concentration 50.0 uM, Number of replicates 1.0
[3] = PRVABC59, Concentration 10.0 uM, Number of replicates 1.0

Chain of UniProt A0A024AXB9 (A0A024AXB9 as listed by the source): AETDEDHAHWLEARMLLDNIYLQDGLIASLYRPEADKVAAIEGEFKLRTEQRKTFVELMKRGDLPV

O=C(c1cc(Cl)ccc1NS(=O)(=O)c1ccc(Oc2ccccc2Cl)cc1)N1Cc2ccc(Br)cc2C1
inhibition [1]: 20.6%

O=C(c1cc(Cl)ccc1NS(=O)(=O)c1ccc(Oc2ccccc2Cl)cc1)N1CCC(c2cccc(Cl)c2)CC1
inhibition [1]: 7.32%

O=C(Nc1nnc(C(F)(F)F)s1)c1cc(Cl)ccc1NS(=O)(=O)c1ccc(Oc2ccccc2Cl)cc1
inhibition [1]: 22.6%

CCCCCCCCCCNC(=O)c1cc(Cl)ccc1NS(=O)(=O)c1ccc(Oc2ccccc2Cl)cc1
inhibition [1]: 27.1%

O=C(Nc1cc(Br)ccc1F)c1cc(Cl)ccc1NS(=O)(=O)c1ccc(Oc2ccccc2Cl)cc1
inhibition [1]: 24.4%

CNC(=O)c1ccncc1NS(=O)(=O)c1ccc(Oc2ccccc2Cl)cc1
inhibition (PRVABC59, Concentration 49.5 uM, Number of replicates 2.0, Standard deviation 4.196010425451196 %): -8.92%

O=Cc1ccc(N2CCC(C(=O)N3CCCC[C@H]3C(F)(F)F)CC2)cc1
inhibition [2]: 30.2%

COCCCN1CCN(C(=O)C2CCN(c3ccc(C=O)cc3)CC2)CC1
inhibition [2]: 19.2%

COc1cc(Cc2cccc3[nH]nnc23)nc(N2CCNCC2)n1
inhibition (PRVABC59, Concentration 49.5 uM, Number of replicates 2.0, Standard deviation 1.138158785297289 %): 6.02%
inhibition (PRVABC59, Concentration 99.01 uM, Number of replicates 2.0, Standard deviation 1.21249807105038 %): 9.76%
inhibition (PRVABC59, Concentration 198.0 uM, Number of replicates 2.0, Standard deviation 1.4508961562682487 %): 15.7%

CCN(CC)CCC[C@H](C)NC(=O)c1cc(Cl)ccc1NS(=O)(=O)c1ccc(Oc2ccccc2Cl)cc1
inhibition [1]: 26.9%

Cc1nc(Cl)c(NC(=O)C2CCN(c3ccc(C=O)cc3)CC2)c(Cl)n1
inhibition [2]: 20.7%

N#Cc1ccc(C[C@H](NC(=O)c2ccccc2)C(=O)NCCCCNC(=N)N)cc1
inhibition (PRVABC59, Concentration 49.5 uM, Number of replicates 2.0, Standard deviation 0.37161761415873995 %): 1.32%
inhibition (PRVABC59, Concentration 99.01 uM, Number of replicates 2.0, Standard deviation 0.413350327736166 %): 7.51%
inhibition (PRVABC59, Concentration 198.0 uM, Number of replicates 2.0, Standard deviation 1.0731208032483701 %): 18.2%

O=Cc1ccc(N2CCC(C(=O)Nc3cccc(C(F)(F)F)n3)CC2)cc1
inhibition [2]: 23.3%

O=Cc1ccc(N2CCC(C(=O)NCCc3csc(-c4ccncc4)n3)CC2)cc1
inhibition [2]: 27.6%

O=Cc1ccc(N2CCC(C(=O)NCc3ccc(Br)s3)CC2)cc1
inhibition [3]: 22.4%

N#Cc1cnn(-c2ccccn2)c1NC(=O)c1cc(Cl)ccc1NS(=O)(=O)c1ccc(Oc2ccccc2Cl)cc1
inhibition [1]: 20.8%

O=Cc1ccc(N2CCC(C(=O)N3CCN(c4ccccc4[N+](=O)[O-])CC3)CC2)cc1
inhibition [2]: 30.4%

Cc1cc(CO)c2cccc(CC(=O)Nc3cc(C)on3)c2n1
inhibition (PRVABC59, Concentration 49.95 uM, Number of replicates 2.0, Standard deviation 1.089187856250299 %): 91.5%
inhibition (PRVABC59, Concentration 99.9 uM, Number of replicates 2.0, Standard deviation 0.03053454880917251 %): 93.2%

O=C(Nc1ccnc(Br)c1)c1cc(Cl)ccc1NS(=O)(=O)c1ccc(Oc2ccccc2Cl)cc1
inhibition [1]: 24.9%

O=C(NCc1ccc(Br)s1)c1cc(Cl)ccc1NS(=O)(=O)c1ccc(Oc2ccccc2Cl)cc1
inhibition [1]: 29.3%

CCOc1ccccc1CNC(=O)C1CCN(c2ccc(C=O)cc2)CC1
inhibition [3]: 22.9%

NS(=O)(=O)c1cscc1CNCc1nnc2ccccn12
inhibition (PRVABC59, Concentration 49.5 uM, Number of replicates 2.0, Standard deviation 1.0558397524219334 %): -3.12%
inhibition (PRVABC59, Concentration 99.01 uM, Number of replicates 2.0, Standard deviation 0.8489884990207718 %): -2.58%
inhibition (PRVABC59, Concentration 198.0 uM, Number of replicates 2.0, Standard deviation 2.897713171950219 %): -0.956%

COCCCN1CCN(C(=O)c2cc(Cl)ccc2NS(=O)(=O)c2ccc(Oc3ccccc3Cl)cc2)CC1
inhibition [1]: 2.25%

Cn1nc(-c2ccccc2)cc1CN1CCC(c2c[nH]c3cccnc23)CC1
inhibition (PRVABC59, Concentration 49.5 uM, Number of replicates 2.0, Standard deviation 1.9137275585057805 %): -0.574%
inhibition (PRVABC59, Concentration 99.01 uM, Number of replicates 2.0, Standard deviation 1.2887842040298862 %): 4.18%
inhibition (PRVABC59, Concentration 198.0 uM, Number of replicates 2.0, Standard deviation 1.218769522108801 %): 4.99%

O=C(N[C@H]1CCCN(c2cnccn2)C1)c1cc(Cl)ccc1NS(=O)(=O)c1ccc(Oc2ccccc2Cl)cc1
inhibition [1]: 11.6%

C[C@H]1CCCCN1CCCNC(=O)C1CCN(c2ccc(C=O)cc2)CC1
inhibition [2]: 24.6%

COc1cc2nc(Cl)nc(NC(=O)c3cc(Cl)ccc3NS(=O)(=O)c3ccc(Oc4ccccc4Cl)cc3)c2cc1OC
inhibition [1]: 21.2%

Cc1cn2nnc(C(=O)N3CCC[C@H](c4nc(=O)[nH][nH]4)C3)c2c(=O)[nH]1
inhibition (PRVABC59, Concentration 49.5 uM, Number of replicates 2.0, Standard deviation 5.922516878130855 %): -5.04%
inhibition (PRVABC59, Concentration 99.01 uM, Number of replicates 2.0, Standard deviation 6.562318743166875 %): -4.61%
inhibition (PRVABC59, Concentration 198.0 uM, Number of replicates 2.0, Standard deviation 5.541728657645175 %): -4.73%

CNC(=O)C[C@H]1CCCN1S(=O)(=O)c1ccc(Oc2ccccc2Cl)cc1
inhibition (PRVABC59, Concentration 49.5 uM, Number of replicates 2.0, Standard deviation 2.9765876271904763 %): -0.51%
inhibition (PRVABC59, Concentration 99.01 uM, Number of replicates 2.0, Standard deviation 1.3586951625567862 %): 1.57%
inhibition (PRVABC59, Concentration 198.0 uM, Number of replicates 2.0, Standard deviation 0.698160185359443 %): 4.75%

O=Cc1ccc(N2CCC(C(=O)N3Cc4ccccc4C[C@@H]3CO)CC2)cc1
inhibition [2]: 23.9%

COc1cccc([C@H](C)NC(=O)C2CCN(c3ccc(C=O)cc3)CC2)c1
inhibition [3]: 23%

O=Cc1ccc(N2CCC(C(=O)NCCc3ccc(OC(F)(F)F)cc3)CC2)cc1
inhibition [2]: 23.3%

Cn1cc(NC(=O)c2ccccc2C(F)(F)F)c(-c2cccc(CO)c2)n1
inhibition (PRVABC59, Concentration 49.5 uM, Number of replicates 2.0, Standard deviation 2.1425827542838123 %): -2.4%
inhibition (PRVABC59, Concentration 99.01 uM, Number of replicates 2.0, Standard deviation 3.2486075389443645 %): -2.61%
inhibition (PRVABC59, Concentration 198.0 uM, Number of replicates 2.0, Standard deviation 3.617736613506203 %): -1.36%

Cc1ncc(CO)c(CNC(=O)C2CCN(c3ccc(C=O)cc3)CC2)c1O
inhibition [3]: -7.66%

O=C(Nc1ccc(-n2cccn2)cc1)c1cc(Cl)ccc1NS(=O)(=O)c1ccc(Oc2ccccc2Cl)cc1
inhibition [1]: 71.5%

O=C(c1cc(Cl)ccc1NS(=O)(=O)c1ccc(Oc2ccccc2Cl)cc1)N1CCN(C(c2ccc(F)cc2)c2ccc(F)cc2)CC1
inhibition [1]: 8.11%

Cc1cc(CO)c2cccc(C[C@H](NC(=O)c3cc(C(F)F)nn3C)C(=O)O)c2n1
inhibition (PRVABC59, Concentration 49.95 uM, Number of replicates 2.0, Standard deviation 2.764997803611235 %): -3.25%
inhibition (PRVABC59, Concentration 99.9 uM, Number of replicates 2.0, Standard deviation 1.1240644155399124 %): 0.291%

O=C(c1cccs1)N1CCCN(C(=O)c2cc(Cl)ccc2NS(=O)(=O)c2ccc(Oc3ccccc3Cl)cc2)CC1
inhibition [1]: 6.67%

O=C(c1cc(Cl)ccc1NS(=O)(=O)c1ccc(Oc2ccccc2Cl)cc1)N1CCN(C(=O)[C@@H]2CCCO2)CC1
inhibition [1]: -3.32%

O=C(NCc1ccc(Oc2ccccc2)cc1)c1cc(Cl)ccc1NS(=O)(=O)c1ccc(Oc2ccccc2Cl)cc1
inhibition [1]: 12.9%

O=C(c1cc(Cl)ccc1NS(=O)(=O)c1ccc(Oc2ccccc2Cl)cc1)N1CCN(c2ccc(Cl)c(Cl)c2)CC1
inhibition [1]: 15.9%

CC[C@H](NC(=O)c1cc(Cl)ccc1NS(=O)(=O)c1ccc(Oc2ccccc2Cl)cc1)c1cccc(C)n1
inhibition [1]: 31.9%
